Test results from PubChem BioAssay AID1240 (Sanford-Burnham Center for Chemical Genomics, 2008).
Hit rate of the full screen: of about 50,000 compounds, about 800 (1.6%) showed an effect of 50% or more. The list shows a part of the results.

These molecules were tested against Bcl-2-like protein 10 (Homo sapiens) (UniProt Q9HD36) (assay: TR3 peptide-Bcl-B binding displacers, biochemical primary FP assay, phenotype converters (AID 1240;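 also: 0% = Bcl-B with tracer peptide and DMSO and 100% = tracer peptide lacking Bcl-B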)). Conditions: GST-Bcl-B / FITC-TR3 peptide fluorescence polarization; stronger effect = higher value; compound at 3.75 mg/L.
Chain of UniProt Q9HD36 (Q9HD36 whole entry, looked up): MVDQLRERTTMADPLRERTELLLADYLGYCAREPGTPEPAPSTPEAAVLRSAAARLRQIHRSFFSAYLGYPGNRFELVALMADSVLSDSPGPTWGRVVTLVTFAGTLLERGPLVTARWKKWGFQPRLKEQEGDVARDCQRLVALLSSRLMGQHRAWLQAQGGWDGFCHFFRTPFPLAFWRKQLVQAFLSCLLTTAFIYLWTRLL
`Cc1ccc(C(=O)C(C)[n+]2cccc(C(N)=O)c2)cc1` (stereo not drawn) showed a displacement of -7.4%.
In the case of `COc1ccc(C(=O)NCC2(c3ccccc3)CCCC2)cc1`, the displacement is reported as -6%.
`Cc1ccc(OCCNC(=O)CCc2ccccc2)cc1C` was tested, and the displacement was 10.3%.
In the case of `NC(=O)SCC(=O)Nc1ccccc1Br`, the displacement is reported as -0.6%.
`CC1CCN(c2cc(N3CCN(C(=O)c4ccc(F)cc4)CC3)c([N+](=O)[O-])cc2F)CC1` gave a displacement of 2.4%.
In the case of `O=C(Oc1ccc(Cl)cc1)c1cccc(S(=O)(=O)N2CCOCC2)c1`, the displacement is reported as -8.4%.
`Cc1cc(C)nc(SCC(=O)NCc2ccco2)n1` was tested, and the displacement was -9.5%.
In the case of `COC(=O)c1cn(C(=O)c2ccco2)c2ccccc12`, the displacement is reported as -14.1%.
`O=C(NN1C(=O)/C(=C/c2ccc(Cl)cc2Cl)SC1=S)c1ccccc1O` showed a displacement of 20.4%.
`CCOc1ccc(N(CC(=O)Nc2ccc(C(C)C)cc2)S(C)(=O)=O)cc1` showed a displacement of 6.6%.
`CCc1c(C)nc2[nH]nc(-c3ccc(C)cc3)n2c1=O` showed a displacement of -5.5%.
In the case of `COc1ccc(NC(=O)c2cc(Br)ccc2Cl)cc1OC`, the displacement is reported as -12.3%.
Molecule `CC(C)c1cc(C=O)cc(C(C)C)c1O` has a displacement of -7.2%.
In the case of `O=C(Nc1ccc(Cl)cn1)c1cc(I)ccc1Cl`, the displacement is reported as 13.6%.
With `C1=CC2CC1CC2CN1CCN(Cc2cccnc2)CC1` (stereo not drawn) the displacement was 6.3%.
`COCc1ccccc1P(=O)(c1ccccc1)c1ccccc1` gave a displacement of 5%.
For `O=C(O)C1C2CCC(O2)C1C(=O)Nc1ccc2c(c1)OCCO2` (stereo not drawn), the displacement was -7.2%.
`O=C(/C=C/NNC(=O)c1ccccc1)c1ccccc1` gave a displacement of 10%.
`O=C(Nc1ccccc1)c1ccccc1NC(=O)C(c1ccccc1)c1ccccc1` gave a displacement of 11.3%.
`CS(=O)(=O)NCCNc1ccc([N+](=O)[O-])cc1Cl` showed a displacement of -16.2%.
In the case of `Cc1ccc(OCC(=O)NNC(=O)c2ccc(Cl)cc2Cl)c(C)c1`, the displacement is reported as -4.4%.
`C=CCN1C(=O)/C(=C/c2cccc(OCc3ccccc3Cl)c2)SC1=S` gave a displacement of -4.4%.
For `O=[N+]([O-])c1cc(Cl)ccc1N1CCN(S(=O)(=O)c2ccc(Cl)cc2)CC1`, the displacement was -5.2%.
For `O=C(/C=C/c1ccccc1)Nc1ccc(N2CCCCC2)cc1`, the displacement was 2.3%.
In the case of `O=C(Nc1nc(-c2ccccc2)c(-c2ccccc2)s1)c1ccccc1F`, the displacement is reported as 13.1%.
In the case of `O=[N+]([O-])c1ccc(N2CCN(Cc3ccccc3)CC2)nc1`, the displacement is reported as 8.6%.
For `Cc1ccc(C)c(COc2ccc3ccc(=O)oc3c2)c1`, the displacement was 6.5%.
`Cc1ccc2nsnc2c1NC(=O)c1cc2ccccc2o1` showed a displacement of 6.6%.
`CCOC(=O)c1c(NC(=O)c2ccccc2OC)sc(C(=O)N2CCCCC2)c1C` showed a displacement of 4.1%.
In the case of `Brc1ccc(C=Nc2ccc(Oc3ccccc3)cc2)s1`, the displacement is reported as 2.2%.
`COc1cc([N+](=O)[O-])ccc1-c1ccc(/C=C2\C(=O)N(c3cccc(C(=O)O)c3)N=C2C)o1` gave a displacement of -17.7%.
Molecule `CC(=O)Nc1nc(-c2cc(C)ccc2C)cs1` has a displacement of 18.1%.
`Cc1sc2ncn(-c3ccc(Cl)cc3)c(=O)c2c1C` was tested, and the displacement was -1.5%.
`O=C(CCOc1ccccc1)Nc1ccccc1` showed a displacement of 13.8%.
Molecule `CC(=O)NS(=O)(=O)c1ccc(NC(=O)C2CCCCC2)cc1` has a displacement of -16.1%.
`O=C(CC(=O)c1ccccc1O)c1ccc(Br)cc1` was tested, and the displacement was 0.8%.
With `Cc1cc(C)n(C(=O)C(C)Oc2ccc(Cl)cc2C)n1` (stereo not drawn) the displacement was -14%.
`Cc1ccc(S(=O)(=O)Oc2ccccc2/C=C2\SC(N)=NC2=O)cc1` was tested, and the displacement was -1%.
For `Cc1ccc(NC(=O)CCC(=O)N(CC(N)=O)CC(N)=O)cc1`, the displacement was -13.4%.
Work on `Cc1cc(OCC(=O)NCC2CCCO2)ccc1Br` (stereo not drawn) yielded a displacement of 0.7%.
In the case of `O=C(c1ccccc1Oc1ccccc1)N1CCN(c2ccc([N+](=O)[O-])cc2)CC1`, the displacement is reported as 15.4%.
In the case of `CCCCc1nnc(NC(=O)Cc2ccccc2)s1`, the displacement is reported as 6.3%.
Work on `O=S(=O)(Nc1cccc(-c2cn3ccccc3n2)c1)c1ccc(-c2ccccc2)cc1` yielded a displacement of -5.7%.
Work on `COc1cccc(NC2=C(Cl)C(=O)N(c3ccc(C)cc3C)C2=O)c1` yielded a displacement of 8.5%.
`CN(C)/N=C/c1ccc(-c2ccc(Cl)c(C(=O)O)c2)o1` was tested, and the displacement was 8%.
`CSc1nnc2c(n1)OC(c1ccc(C)o1)Nc1ccccc1-2` (stereo not drawn) showed a displacement of 0.6%.
In the case of `Cc1ccc(Nc2nc(-c3ccc(-c4ccccc4)cc3)cs2)cc1`, the displacement is reported as 0.1%.
With `CC(=O)Nc1ccc(S(=O)(=O)N2CCN(c3ccc([N+](=O)[O-])cc3)CC2)cc1` the displacement was 10.7%.
With `O=C1/C(=C\c2ccccc2[N+](=O)[O-])SC(=S)N1c1ccc(F)cc1` the displacement was 7.9%.
Molecule `Cc1c(Br)c([N+](=O)[O-])nn1CC(=O)N1CCc2ccccc2C1` has a displacement of 10.5%.
`CCN(CC)CCCCCCOc1ccc(Br)cc1` showed a displacement of 13.1%.
In the case of `CCC(Oc1ccccc1)C(=O)Nc1ccc(C)c([N+](=O)[O-])c1` (stereo not drawn), the displacement is reported as 4.8%.
`CCOC(=O)c1c(N)sc(C(=O)Nc2ccccc2OC)c1C` gave a displacement of 0.8%.
For `Cc1ccccc1-n1c(C)cc(/C=N/NC(=O)c2ccncc2)c1C`, the displacement was -24%.
With `CCCC(NC(=O)c1ccccc1)C(=O)OCC(=O)Nc1nnc(C)s1` (stereo not drawn) the displacement was 25.9%.
For `C/C(=N\N=C1\NC(=O)C(CC(=O)NCc2ccccc2)S1)C(C)C` (stereo not drawn), the displacement was 0.3%.
`CCN(CC)C(=O)C(=O)N/N=C/c1ccco1` gave a displacement of 9.9%.
Work on `NC(=O)c1ccc(N2CCOCC2)c([N+](=O)[O-])c1` yielded a displacement of 2.3%.
Work on `COc1cc(NC(=O)COc2ccc(Cl)cc2C)ccc1NC(=O)c1ccco1` yielded a displacement of -51%.
In the case of `Cc1ccc(OCCCNC(C)(C)C)c(C)c1`, the displacement is reported as -3.4%.
`O=C(Nc1c[nH]c(=O)[nH]c1=O)c1ccc(Br)cc1` showed a displacement of 12.4%.
`C=CCON1C(=O)C(=O)N(OCC=C)C2CCCCC21` (stereo not drawn) showed a displacement of 14.2%.
For `Cc1onc(-c2ccccc2Cl)c1C(=O)N1CCN(C(=O)c2ccco2)CC1`, the displacement was -8.5%.
`CCC1CCc2c(sc(NC(=O)CCC(=O)O)c2C#N)C1` (stereo not drawn) gave a displacement of 13.6%.
With `CCOC(=O)N1CCN(c2nc(=S)n(-c3ccccc3)c(C)c2C(C)=O)CC1` the displacement was 3.4%.
`CCOC(=O)CC(=O)c1[nH]c(C)c(C(=O)OCC)c1C` gave a displacement of 1.2%.
`N#Cc1c2ncn(CC(=NO)c3ccccc3)c(=O)c2c2n1CCC2` was tested, and the displacement was -3.6%.
`O=S(=O)(c1ccc(Cl)cc1)N1CCN(Cc2ccccc2Cl)CC1` showed a displacement of -12.8%.
`CCCOc1ccc(C(=O)Nc2ccc3oc(-c4cccnc4)nc3c2)cc1` was tested, and the displacement was 13.2%.
Work on `CCOC(=O)c1c(-c2ccccc2)csc1NC(=O)c1ccccc1I` yielded a displacement of 10.1%.
`COc1ccc(-n2sc3c(c2=S)-c2cc(OC)ccc2NC3(C)C)cc1` showed a displacement of 2.1%.
Molecule `Brc1cccc(-c2nc(-c3cccnc3)no2)c1` has a displacement of -7.2%.
`CCOC(=O)C1=C(C)N=c2s/c(=C\c3cc4c(cc3Cl)OCO4)c(=O)n2C1c1cccc(OC)c1` (stereo not drawn) gave a displacement of 16.8%.
